# This continues a long series; more values of the same kind are listed elsewhere.
# System: 766 cancer cell lines
# Assay: Large-scale cell-line viability measurements (766 cancer cell lines, 72 h, AUC)
# Format: cell-based, human
# Experimental: Cell lines were treated for 72 hours with concentrations ranging from 66.4 μM-2 nM in 2-fold step dilutions.
# To characterize cellular sensitivity to DNMDP further, 766 genomically characterized cancer cell lines were screened for DMNDP sensitivity at concentrations ranging from 66.4 μM to 2 nM in 2-fold dilution steps for 72 hours. From these cell lines, 22 cell lines were categorized as sensitive with a robust Z-score lower than −4, which represented multiple lineages including multiple melanoma cell lines, amongst others (Table 1).
# The sensitivity of […] cancer cell lines (CCLs) was measured drawn from 23 different lineages to DNMDP. Each cell line was plated in its preferred media in white opaque 1536-plates at a density of 500 cells/well. After incubating overnight, DNMDP was added by acoustic transfer at 16 concentrations ranging from 66.4 μM-2 nM in 2-fold steps in duplicate (Labcyte Echo 555, Labcyte Inc., Sunnyvale, Calif.). After 72 hours treatment, cellular ATP levels were measured as a surrogate for viability (CELLTITERGLO®, Promega Corporation, Madison, Wis.) according to manufacturer's protocols using a ViewLux Microplate Imager (PerkinElmer, Waltham, Mass.) and normalized to background (media-only) and vehicle (DMSO)-treated control wells.
# Concentration response curves were fit using nonlinear fits to 2- or 3-parameter sigmoid functions through all 16 concentrations with the low-concentration asymptote set to the DMSO-normalized value, and an optimal 8-point dose curve spanning the range of compound-sensitivity was identified. The area under the 8-point dose curve (AUC) was computed by numeric integration as a metric for sensitivity for further analysis. Similar sensitivity measurements have been obtained for a collection of 480 other compounds, enabling analyses that identify cell lines responding uniquely to DNMDP (see Broad Institute Cancer Therapeutics Response Portal, a dataset to identify comprehensively relationships between genetic and lineage features of human cancer cell lines and small-molecule sensitivities for complete list of compounds).
# [1] = YD8 (UPPER AERODIGESTIVE TRACT), 72 hours
# [2] = YD10B (UPPER AERODIGESTIVE TRACT), 72 hours
# [3] = YH13 (CENTRAL NERVOUS SYSTEM), 72 hours
# [4] = cell line A3KAW (HAEMATOPOIETIC AND LYMPHOID TISSUE)
# [5] = cell line A4FUK (HAEMATOPOIETIC AND LYMPHOID TISSUE)
# [6] = cell line A172 (CENTRAL NERVOUS SYSTEM)
# [7] = cell line A253 (SALIVARY GLAND)
# [8] = cell line AM38 (CENTRAL NERVOUS SYSTEM)
# [9] = cell line AML193, HAEMATOPOIETIC AND LYMPHOID TISSUE, 72 hours
# [10] = cell line AMO1, HAEMATOPOIETIC AND LYMPHOID TISSUE, 72 hours
# [11] = cell line BFTC905, URINARY TRACT, 72 hours
# [12] = cell line BFTC909, KIDNEY, 72 hours
# [13] = cell line BHY (UPPER AERODIGESTIVE TRACT)
# [14] = cell line BICR16 (UPPER AERODIGESTIVE TRACT)
# [15] = cell line BICR56, UPPER AERODIGESTIVE TRACT, 72 hours
# [16] = cell line BL70 (HAEMATOPOIETIC AND LYMPHOID TISSUE)
# [17] = cell line BT474, BREAST, 72 hours
# [18] = cell line C2BBE1 (LARGE INTESTINE)
# [19] = cell line CAL29 (URINARY TRACT)
# [20] = cell line CAL33, UPPER AERODIGESTIVE TRACT, 72 hours
# [21] = cell line CAL120, BREAST, 72 hours
# [22] = cell line CAL148, BREAST, 72 hours
smiles,measurement,setting,value
"CCN(CC)c1ccc(C2=NNC(=O)CC2C)cc1[N+](=O)[O-] (centres unmarked) [DNMDP, 6-(4-(diethylamino)-3-nitrophenyl)-5-methyl-4,5-dihydropyridazin-3(2H)-one]",DNMDP AUC,"X8305C (THYROID), 72 hours",5.0004
same,Robust Z-score,"X8305C (THYROID), 72 hours",−1.715
same,DNMDP AUC,"X8505C (THYROID), 72 hours",4.3418
same,Robust Z-score,"X8505C (THYROID), 72 hours",−2.407
same,DNMDP AUC,[1],6.4856
same,Robust Z-score,[1],−0.1565
same,DNMDP AUC,[2],6.4579
same,Robust Z-score,[2],−0.1855
same,DNMDP AUC,[3],4.7007
same,Robust Z-score,[3],−2.03
same,DNMDP AUC,"ZR7530 (BREAST), 72 hours",6.4339
same,Robust Z-score,"ZR7530 (BREAST), 72 hours",−0.2107
same,DNMDP AUC,[4],6.6031
same,Robust Z-score,[4],−0.03312
same,DNMDP AUC,[5],6.7317
same,Robust Z-score,[5],0.1019
same,DNMDP AUC,cell line A101D (SKIN),6.8089
same,Robust Z-score,cell line A101D (SKIN),0.1829
same,DNMDP AUC,[6],6.6858
same,Robust Z-score,[6],0.05369
same,DNMDP AUC,cell line A204 (SOFT TISSUE),6.7338
same,Robust Z-score,cell line A204 (SOFT TISSUE),0.1041
same,DNMDP AUC,[7],6.6238
same,Robust Z-score,[7],−0.01139
same,DNMDP AUC,cell line A375 (SKIN),6.9117
same,Robust Z-score,cell line A375 (SKIN),0.2908
same,DNMDP AUC,cell line A2780 (OVARY),6.5613
same,Robust Z-score,cell line A2780 (OVARY),−0.07699
same,DNMDP AUC,cell line ACCMESO1 (PLEURA),7.0033
same,Robust Z-score,cell line ACCMESO1 (PLEURA),0.387
same,DNMDP AUC,cell line ACHN (KIDNEY),6.5518
same,Robust Z-score,cell line ACHN (KIDNEY),−0.08696
same,DNMDP AUC,cell line AGS (STOMACH),6.9378
same,Robust Z-score,cell line AGS (STOMACH),0.3182
same,DNMDP AUC,[8],6.9715
same,Robust Z-score,[8],0.3536
same,DNMDP AUC,[9],7.3753
same,Robust Z-score,[9],0.7774
same,DNMDP AUC,[10],7.2764
same,Robust Z-score,[10],0.6736
same,DNMDP AUC,cell line AN3CA (ENDOMETRIUM),6.9081
same,Robust Z-score,cell line AN3CA (ENDOMETRIUM),0.287
same,DNMDP AUC,cell line BEN (LUNG),7.0341
same,Robust Z-score,cell line BEN (LUNG),0.4193
same,DNMDP AUC,[11],7.3514
same,Robust Z-score,[11],0.7523
same,DNMDP AUC,[12],7.9189
same,Robust Z-score,[12],1.348
same,DNMDP AUC,cell line BHT101 (THYROID),6.6351
same,Robust Z-score,cell line BHT101 (THYROID),0.0004723
same,DNMDP AUC,[13],6.8627
same,Robust Z-score,[13],0.2394
same,DNMDP AUC,[14],7.0071
same,Robust Z-score,[14],0.3909
same,DNMDP AUC,[15],7.2108
same,Robust Z-score,[15],0.6048
same,DNMDP AUC,[16],6.8619
same,Robust Z-score,[16],0.2385
same,DNMDP AUC,cell line BT20 (BREAST),6.8931
same,Robust Z-score,cell line BT20 (BREAST),0.2713
same,DNMDP AUC,[17],7.2422
same,Robust Z-score,[17],0.6377
same,DNMDP AUC,[18],6.9144
same,Robust Z-score,[18],0.2936
same,DNMDP AUC,cell line CAKI1 (KIDNEY),6.7755
same,Robust Z-score,cell line CAKI1 (KIDNEY),0.1478
same,DNMDP AUC,cell line CAKI2 (KIDNEY),6.614
same,Robust Z-score,cell line CAKI2 (KIDNEY),−0.02168
same,DNMDP AUC,cell line CAL12T (LUNG),6.5741
same,Robust Z-score,cell line CAL12T (LUNG),−0.06356
same,DNMDP AUC,[19],7.0497
same,Robust Z-score,[19],0.4357
same,DNMDP AUC,[20],7.2038
same,Robust Z-score,[20],0.5974
same,DNMDP AUC,cell line CAL62 (THYROID),6.721
same,Robust Z-score,cell line CAL62 (THYROID),0.09064
same,DNMDP AUC,[21],7.32
same,Robust Z-score,[21],0.7194
same,DNMDP AUC,[22],7.1477
same,Robust Z-score,[22],0.5385
same,DNMDP AUC,cell line CAL851 (BREAST),6.6074
same,Robust Z-score,cell line CAL851 (BREAST),−0.0286
same,DNMDP AUC,"cell line CALU1, LUNG, 72 hours",7.8185

# Reference: patent publication US11207320B2, “Compositions and methods for cancer expressing PDE3A or SLFN12” (The Broad Institute, Inc., priority 2015, dated 2021)
